# In publication PMC9911399, “Two distinct binding modes provide the RNA-binding protein RbFox with extraordinary sequence specificity”:
# Substitutions are numbered along the chain they refer to; changes in the protein carry UniProt numbers. The list shows a part of the results.
# T1: RBFOX1 RRM RbFoxmut (Fox-RRM*) (Homo sapiens, UniProt Q9NWB1 109-208, R118D;E147R;N151S;E152T)
# T1 sequence: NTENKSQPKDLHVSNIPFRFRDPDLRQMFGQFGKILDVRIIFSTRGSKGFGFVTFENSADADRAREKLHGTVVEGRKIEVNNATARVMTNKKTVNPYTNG
# B1: UUUCCUC (DNA:RNA)
# RNA: GGGAGACCGGAAUUCAGAUUGUCCUUUCCUCUUAAAUCCCGUCGUAGCCACCA
# DNA 1: CAATCTGAATTCCGGTCTCCC
# DNA 2: TGGTGGCTACGACGGGATT
# B2: AACAGUU (DNA:RNA)
# RNA: B1 RNA with U25A, U26A, U27C, C28A, C29G, C31U
# DNA 1: CAATCTGAATTCCGGTCTCCC
# DNA 2: TGGTGGCTACGACGGGATT
# B3: UGCUAUA (DNA:RNA)
# RNA: B1 RNA with U26G, U27C, C28U, C29A, C31A
# DNA 1: CAATCTGAATTCCGGTCTCCC
# DNA 2: TGGTGGCTACGACGGGATT
# B4: GCCGUAG (DNA:RNA)
# RNA: GGGAGACCGGAAUUCAGAUUGUCCGCCGUAGUUAAAUCCCGUCGUAGCCACCA
# DNA 1: CAATCTGAATTCCGGTCTCCC
# DNA 2: TGGTGGCTACGACGGGATT
# B5: GUAAAAG (DNA:RNA)
# RNA: B4 RNA with C26U, C27A, G28A, U29A
# DNA 1: CAATCTGAATTCCGGTCTCCC
# DNA 2: TGGTGGCTACGACGGGATT
# B6: ACCCCAG (DNA:RNA)
# RNA: B4 RNA with G25A, G28C, U29C
# DNA 1: CAATCTGAATTCCGGTCTCCC
# DNA 2: TGGTGGCTACGACGGGATT
# B7: CCUGAAC (DNA:RNA)
# RNA: B4 RNA with G25C, C27U, U29A, G31C
# DNA 1: CAATCTGAATTCCGGTCTCCC
# DNA 2: TGGTGGCTACGACGGGATT
# B8: CUCUAGA (DNA:RNA)
# RNA: B4 RNA with G25C, C26U, G28U, U29A, A30G, G31A
# DNA 1: CAATCTGAATTCCGGTCTCCC
# DNA 2: TGGTGGCTACGACGGGATT
# B9: UUCUAUC (DNA:RNA)
# RNA: B1 RNA with U27C, C28U, C29A
# DNA 1: CAATCTGAATTCCGGTCTCCC
# DNA 2: TGGTGGCTACGACGGGATT
# B10: CGGUCGA (DNA:RNA)
# RNA: B1 RNA with U25C, U26G, U27G, C28U, U30G, C31A
# DNA 1: CAATCTGAATTCCGGTCTCCC
# DNA 2: TGGTGGCTACGACGGGATT
# B11: AGCCGGU (DNA:RNA)
# RNA: B4 RNA with G25A, C26G, G28C, U29G, A30G, G31U
# DNA 1: CAATCTGAATTCCGGTCTCCC
# DNA 2: TGGTGGCTACGACGGGATT
# B12: AGGGGAU (DNA:RNA)
# RNA: B4 RNA with G25A, C26G, C27G, U29G, G31U
# DNA 1: CAATCTGAATTCCGGTCTCCC
# DNA 2: TGGTGGCTACGACGGGATT
# B13: CCAAGUU (DNA:RNA)
# RNA: B4 RNA with G25C, C27A, G28A, U29G, A30U, G31U
# DNA 1: CAATCTGAATTCCGGTCTCCC
# DNA 2: TGGTGGCTACGACGGGATT
# B14: AAAAGCC (DNA:RNA)
# RNA: B1 RNA with U25A, U26A, U27A, C28A, C29G, U30C
# DNA 1: CAATCTGAATTCCGGTCTCCC
# DNA 2: TGGTGGCTACGACGGGATT
# B15: GUCUACC (DNA:RNA)
# RNA: B4 RNA with C26U, G28U, U29A, A30C, G31C
# DNA 1: CAATCTGAATTCCGGTCTCCC
# DNA 2: TGGTGGCTACGACGGGATT
# B16: GUGUCAC (DNA:RNA)
# RNA: B1 RNA with U25G, U27G, C28U, U30A
# DNA 1: CAATCTGAATTCCGGTCTCCC
# DNA 2: TGGTGGCTACGACGGGATT
# B17: GACCGUC (DNA:RNA)
# RNA: B1 RNA with U25G, U26A, U27C, C29G
# DNA 1: CAATCTGAATTCCGGTCTCCC
# DNA 2: TGGTGGCTACGACGGGATT
# B18: ACCCAGA (DNA:RNA)
# RNA: B4 RNA with G25A, G28C, U29A, A30G, G31A
# DNA 1: CAATCTGAATTCCGGTCTCCC
# DNA 2: TGGTGGCTACGACGGGATT
# B19: AGUACAC (DNA:RNA)
# RNA: B1 RNA with U25A, U26G, C28A, U30A
# DNA 1: CAATCTGAATTCCGGTCTCCC
# DNA 2: TGGTGGCTACGACGGGATT
# B20: CCAUACC (DNA:RNA)
# RNA: B4 RNA with G25C, C27A, G28U, U29A, A30C, G31C
# DNA 1: CAATCTGAATTCCGGTCTCCC
# DNA 2: TGGTGGCTACGACGGGATT
# B21: CCACGAC (DNA:RNA)
# RNA: B4 RNA with G25C, C27A, G28C, U29G, G31C
# DNA 1: CAATCTGAATTCCGGTCTCCC
# DNA 2: TGGTGGCTACGACGGGATT
# B22: GUGCCAU (DNA:RNA)
# RNA: B1 RNA with U25G, U27G, U30A, C31U
# DNA 1: CAATCTGAATTCCGGTCTCCC
# DNA 2: TGGTGGCTACGACGGGATT
# B23: CGGCUAA (DNA:RNA)
# RNA: B4 RNA with G25C, C26G, C27G, G28C, G31A
# DNA 1: CAATCTGAATTCCGGTCTCCC
# DNA 2: TGGTGGCTACGACGGGATT
# B24: CAAUUCG (DNA:RNA)
# RNA: B4 RNA with G25C, C26A, C27A, G28U, A30C
# DNA 1: CAATCTGAATTCCGGTCTCCC
# DNA 2: TGGTGGCTACGACGGGATT
# B25: AUCCCUU (DNA:RNA)
# RNA: B1 RNA with U25A, U27C, C31U
# DNA 1: CAATCTGAATTCCGGTCTCCC
# DNA 2: TGGTGGCTACGACGGGATT
# B26: ACGAUAG (DNA:RNA)
# RNA: B4 RNA with G25A, C27G, G28A
# DNA 1: CAATCTGAATTCCGGTCTCCC
# DNA 2: TGGTGGCTACGACGGGATT
# B27: GGGCCAG (DNA:RNA)
# RNA: B4 RNA with C26G, C27G, G28C, U29C
# DNA 1: CAATCTGAATTCCGGTCTCCC
# DNA 2: TGGTGGCTACGACGGGATT
# B28: AAAUCGA (DNA:RNA)
# RNA: B1 RNA with U25A, U26A, U27A, C28U, U30G, C31A
# DNA 1: CAATCTGAATTCCGGTCTCCC
# DNA 2: TGGTGGCTACGACGGGATT
# B29: AAAGGCA (DNA:RNA)
# RNA: B4 RNA with G25A, C26A, C27A, U29G, A30C, G31A
# DNA 1: CAATCTGAATTCCGGTCTCCC
# DNA 2: TGGTGGCTACGACGGGATT
# B30: GUACAGC (DNA:RNA)
# RNA: B1 RNA with U25G, U27A, C29A, U30G
# DNA 1: CAATCTGAATTCCGGTCTCCC
# DNA 2: TGGTGGCTACGACGGGATT
# B31: AGAGGUA (DNA:RNA)
# RNA: B4 RNA with G25A, C26G, C27A, U29G, A30U, G31A
# DNA 1: CAATCTGAATTCCGGTCTCCC
# DNA 2: TGGTGGCTACGACGGGATT
# Molecular target: T1, RBFOX1 RRM RbFoxmut (Fox-RRM*)
# Experiment: EMSA; HiTS-Eq, 1 nM pool, 10 min; buffer printed only for the single-RNA assays: 10 mM Tris pH 7.5, 150 mM NaCl, 3.4 mM EDTA, 0.001% NP-40, 30 C
# Details: tags: His6 N-terminal (pET28a); label: 5' 32P
# In short: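 Purified wild-type or mutant RbFox RRM at increasing concentrations was equilibrated with 1 nM of 5′-radiolabelled RNA carrying 7 randomized nucleotides for 10 min in 50 µL. Unbound RNA was separated by 8% native PAGE and sequenced. Relative association constants came from read-count changes of each RNA species compared with the control reaction, normalised to the cognate motif.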
row,Binder,binding signal
1,B1,0.0512 KA relative to UGCAUGU
2,B2,0.062 KA relative to UGCAUGU
3,B3,0.131 KA relative to UGCAUGU
4,B4,0.101 KA relative to UGCAUGU
5,B5,0.0873 KA relative to UGCAUGU
6,B6,0.0944 KA relative to UGCAUGU
7,B7,0.0894 KA relative to UGCAUGU
8,B8,0.13 KA relative to UGCAUGU
9,B9,0.0844 KA relative to UGCAUGU
10,B10,0.0808 KA relative to UGCAUGU
11,B11,0.0724 KA relative to UGCAUGU
12,B12,0.0992 KA relative to UGCAUGU
13,B13,0.106 KA relative to UGCAUGU
14,B14,0.0656 KA relative to UGCAUGU
15,B15,0.0758 KA relative to UGCAUGU
16,B16,0.0808 KA relative to UGCAUGU

row,Binder,binding signal
1,B17,0.0863 KA relative to UGCAUGU
2,B18,0.119 KA relative to UGCAUGU
3,B19,0.0633 KA relative to UGCAUGU
4,B20,0.0836 KA relative to UGCAUGU
5,B21,0.0943 KA relative to UGCAUGU
6,B22,0.0912 KA relative to UGCAUGU
7,B23,0.0906 KA relative to UGCAUGU
8,B24,0.0664 KA relative to UGCAUGU
9,B25,0.0704 KA relative to UGCAUGU
10,B26,0.105 KA relative to UGCAUGU
11,B27,0.0926 KA relative to UGCAUGU
12,B28,0.0756 KA relative to UGCAUGU
13,B29,0.0931 KA relative to UGCAUGU
14,B30,0.0876 KA relative to UGCAUGU
15,B31,0.148 KA relative to UGCAUGU
